{
  "source": "paper PMC3798644",
  "about": "“Molecular Basis for Oligomeric-DNA Binding and Episome Maintenance by KSHV LANA” (PLoS Pathogens, 2013)",
  "target": "T1, LANA C-terminal DNA binding domain (residues 1011-1153), wild type (Kaposi's sarcoma-associated herpesvirus …, UniProt Q76SB0 1011-1153)",
  "T1 construct": "source: E. coli, purified (Ni-NTA, tag cleaved with ULP1, second Ni-NTA, Superdex 75)",
  "T1 sequence": "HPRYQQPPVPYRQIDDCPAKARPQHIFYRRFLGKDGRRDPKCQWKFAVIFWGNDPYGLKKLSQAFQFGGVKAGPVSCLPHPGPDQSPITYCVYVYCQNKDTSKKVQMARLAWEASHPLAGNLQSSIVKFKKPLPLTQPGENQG",
  "assay": "pull-down; His-SMT3-BRD ET domain held on Ni-NTA resin; untagged LANADBD or EBNA1DBD added; 200 mM NaCl, 20 mM HEPES, 5 mM BME, pH 8.0; washed with 10 CV; eluted with 300 mM imidazole",
  "conditions": "both partners purified",
  "data": [
    {"binder": "His-SMT3-BRD4 ET domain, short form (BRD4 […]) (domain or fragment, also called BRD4S) not shown", "values": [
      {"measurement": "binding result", "result": "binds"}
    ]}
  ]
}
